Reference: the supplement of paper PMC10126150
Sequences with one replicate were seen in a single cluster, so their values are uncertain.

Tested on: ATP
Test: switch fluorescence ratio, 500 uM ATP over buffer (Cy3 cluster intensity, sum of 5 cycles each) (fold (ratio)); higher = stronger signal-on switching upon ATP binding; sequences stand for … in TCGTCGGCAGCGTCAGATGTGTATAAGAGACAGTTTTTTTTTTTTTTTTTTTTTTTTT…TC
Conditions: aptamer strand: ATP DNA aptamer (quencher-CACCTGGGGGAGTATTGCGGAGGAAGG + anchor), 100 nM annealed; ATP concentration: 500 uM; one replicate
In short: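 Per cluster, summed Cy3 intensity from the target cycles was divided by that from the buffer cycles to give the fluorescence ratio, then averaged per switch-domain sequence. Clusters outside 100-1000 RFU were excluded. The Cy3-labelled switching-strand clusters, on a modified Illumina MiSeq flow-cell, were annealed to 100 nM quencher-labelled ATP aptamer and imaged in selection buffer, then after 15 min with 500 uM ATP at 22 °C, for five cycles with NaOH stripping and re-annealing between them.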
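Note: ATP exposure 15 min at 22 °C before imaging.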

Row | Sequence | switch fluorescence ratio
1 | CACTGCTCAC | 1.54
2 | CACTGGCGCG | 1.03
3 | CACTGGCGCT | 1.05
4 | CACTGGGCAA | 0.924
5 | CACTGGGCCG | 0.976
6 | CACTGGGCTT | 1.03
7 | CACTGTAAGC | 1.09
8 | CACTGTCCTC | 1.06
9 | CACTGTCGT | 0.979
10 | CACTTAAGGG | 1.02
11 | CACTTAGATA | 1.02
12 | CACTTGATA | 1.02
13 | CAGAAAAATC | 0.99
14 | CAGAAAGTCG | 0.991
15 | CAGAAATTTA | 0.983
16 | CAGAACAGCA | 1.02
17 | CAGAACGTGA | 1.14
18 | CAGAACTACA | 1.05
19 | CAGAATTATA | 0.979
20 | CAGAATTATT | 1.05
21 | CAGACACCCT | 1.15
22 | CAGACAGTTA | 0.986
23 | CAGACCCATT | 1.02
24 | CAGACCCTTA | 1.03
25 | CAGACTTGTA | 0.967
26 | CAGAGACGTG | 1.02

Row | Sequence | switch fluorescence ratio
27 | CAGAGGGCCA | 0.969
28 | CAGAGTCAGC | 0.961
29 | CAGAGTCTCG | 1.04
30 | CAGAGTGT | 0.985
31 | CAGATAAGGG | 0.924
32 | CAGATCCGT | 0.961
33 | CAGATGAGCG | 0.997
34 | CAGATGAGTA | 1.04
35 | CAGATGGGCT | 0.995
36 | CAGATTAGGT | 0.995
37 | CAGATTGATT | 0.962
38 | CAGATTTATA | 0.992
39 | CAGATTTCTT | 1.02
40 | CAGATTTTTC | 0.973
41 | CAGCACATGG | 1.34
42 | CAGCAGCCTG | 1.04
43 | CAGCATGCGG | 1
44 | CAGCCAGTTT | 0.992
45 | CAGCCCTTTC | 1.27
46 | CAGCCGGAGT | 1.04
47 | CAGCCTCCT | 1.19
48 | CAGCCTTAGG | 1
49 | CAGCGAGAAG | 0.981
50 | CAGCGATTAA | 0.983
51 | CAGCGCCACA | 1.01
52 | CAGCGCGAAG | 1.04

Row | Sequence | switch fluorescence ratio
53 | CAGCGCTTTT | 1.01
54 | CAGCGT | 1.05
55 | CAGCGTGGCC | 1.03
56 | CAGCTAGGAG | 0.996
57 | CAGCTGAA | 1.03
58 | CAGCTGCA | 1.05
59 | CAGCTGCACG | 0.987
60 | CAGCTGGTAG | 1
61 | CAGCTGTCA | 0.991
62 | CAGCTTAGTT | 0.994
63 | CAGCTTCATA | 0.998
64 | CAGGAAAGCC | 0.987
65 | CAGGAATACC | 1.45
66 | CAGGAATTTC | 1.05
67 | CAGGACAAAC | 1.1
68 | CAGGACGACC | 1.76
69 | CAGGAGATAA | 1.01
70 | CAGGAGCGGC | 0.79
71 | CAGGAGGGTA | 1.01
72 | CAGGATAGCG | 0.997
73 | CAGGATTATC | 0.973
74 | CAGGCGACGT | 0.991
75 | CAGGCGATCT | 1.06
76 | CAGGCTAGGA | 0.99
77 | CAGGCTCCG | 1.03
78 | CAGGCTGAGC | 1.04

Row | Sequence | switch fluorescence ratio
79 | CAGGCTTGAA | 0.987
80 | CAGGGATGT | 0.975
81 | CAGGGCATAT | 1.06
82 | CAGGGCGAGT | 1
83 | CAGGGCGTCA | 1
84 | CAGGGTACAA | 1.12
85 | CAGGGTTCAG | 1
86 | CAGGGTTGTC | 1.02
87 | CAGGTATCGT | 1
88 | CAGGTCAAG | 1.05
89 | CAGGTCATC | 0.982
90 | CAGGTCATCG | 1.02
91 | CAGGTCGTC | 0.966
92 | CAGGTGAGGT | 1.44
93 | CAGGTGAGTC | 1.22
94 | CAGGTGCCTT | 1.53
95 | CAGGTGCGTG | 1.02
96 | CAGGTGGACA | 0.985
97 | CAGGTGGGCC | 1.01
98 | CAGGTTCATA | 0.999
99 | CAGTACAGGG | 0.97
100 | CAGTACAGT | 1.01
101 | CAGTACTGAG | 0.998
